Measured values as given in the supplement of paper PMC12217912.
The other results are listed elsewhere or left out. The full chains were built here from the parent and the listed change. Inactive controls read about 0.05.

B1: TEV protease; numbered along this chain (parent)
chain: MGESLFKGPRDYNPISSSICHLTNESDGHTTSLYGIGFGPFIITNKHLFRRNNGTLVVQSLHGVFKVKDTTTLQQHLVDGRDMIIIRMPKDFPPFPQKLKFREPQREERICLVTTNFQTKSMSSMVSDTSCTFPSGDGIFWKHWIQTKDGQCGSPLVSTRDGFIVGIHSASNFTNTNNYFTSVPKNFMELLTNQEAQQWVSGWRLNADSVLWGGHKVFMVKPEEPFQPVKEATQL

Variants of: B1
Assay: raw area under fraction-flipped curve 0-4 h after induction (AUC4h, not background-subtracted), DNA-recorder readout of cleavage of the substrate (dimensionless); higher = more cleavage of the substrate by the protease variant
Settings: temperature: 34 °C; time window: 0-4 h after rhamnose induction
Method: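 In vivo DNA recorder in E. coli TOP10(DE3) ΔrhaA at 34 °C. Each TEVp single-site mutant (parent TEVp 0) is paired with a single-site variant of the 7-mer TEVs (canonical ENLYFQ|S). The substrate sits between flexible linkers in a Bxb1-sfGFP-TEVs-SsrA fusion, so cleavage stabilises Bxb1 and speeds flipping of a recombination array, read by NGS. The value is the raw area under the fraction-flipped curve over 0-4 h after rhamnose induction (AUC4h), with ≥20 reads per time point. It is not background-subtracted; inactive controls average about 0.047.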
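Note: Bxb1 expression induced with 0.2% (w/v) L-rhamnose at OD600 near 0.5, cultures sampled hourly, flipped fraction per protease–substrate barcode pair counted by paired-end Illumina sequencing.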

Row | Variant | area with substrate ENAYFQS | area with substrate ENCYFQS | area with substrate ENDYFQS | area with substrate ENFYFQS | area with substrate ENGYFQS | area with substrate ENHYFQS | area with substrate ENIYFQS | area with substrate ENKYFQS | area with substrate ENPYFQS | area with substrate ENQYFQS | area with substrate ENSYFQS | area with substrate ENTYFQS | area with substrate ENVYFQS | area with substrate ENWYFQS | area with substrate ENEYFQS | area with substrate ENMYFQS | area with substrate ENNYFQS | area with substrate ENRYFQS | area with substrate ENYYFQS
1 | T192D | 0.0454 | 0.0582 | 0.0572 | 0.0691 | 0.0573 | 0.0607 | 0.0925 | 0.0554 | 0.0685 | 0.0579 | 0.0651 | 0.0702 | 0.0644 | 0.0428 | – | – | – | – | –
2 | T192P | 0.0621 | 0.0676 | 0.0721 | 0.0666 | – | – | 0.0818 | – | 0.0498 | 0.0663 | 0.0635 | 0.0595 | 0.0576 | 0.0654 | 0.0601 | 0.0648 | 0.061 | 0.0376 | –
3 | T192Y | 0.0413 | 0.0694 | 0.0743 | 0.0579 | – | 0.0526 | – | 0.0636 | – | – | – | 0.0615 | – | – | 0.0599 | – | – | – | –
4 | Q151S | 0.0652 | 0.071 | 0.0331 | 0.0365 | 0.0697 | 0.037 | 0.114 | 0.0673 | – | – | 0.0552 | 0.0565 | – | – | 0.0613 | – | 0.0534 | 0.0517 | 0.0512
5 | P155E | 0.0436 | – | 0.0655 | – | 0.0481 | 0.0582 | 0.0633 | – | 0.0485 | 0.0485 | 0.0441 | 0.0492 | – | 0.0457 | 0.0343 | – | – | – | 0.0477
6 | P155M | 0.0683 | – | – | 0.0467 | – | 0.0575 | 0.0738 | – | 0.0267 | 0.0671 | 0.0599 | 0.057 | 0.05 | 0.0416 | 0.041 | 0.0684 | – | – | 0.0441
7 | I145C | 0.0744 | 0.081 | 0.0529 | 0.0513 | 0.0801 | 0.086 | 0.137 | 0.0737 | – | 0.0622 | 0.125 | 0.0612 | – | – | 0.0759 | – | 0.0591 | – | 0.049
8 | F140M | 0.0653 | 0.0487 | 0.0755 | – | – | 0.0531 | 0.0708 | 0.0492 | – | 0.062 | – | – | – | – | 0.0607 | – | – | 0.0492 | –
9 | F140P | 0.0614 | 0.0643 | 0.0579 | – | 0.0501 | 0.0421 | – | – | 0.0631 | – | 0.0624 | 0.0253 | 0.059 | – | 0.0746 | – | 0.0634 | 0.0567 | 0.0558
10 | F140I | 0.0617 | 0.0636 | 0.0585 | 0.0686 | 0.074 | 0.05 | 0.0444 | 0.0683 | 0.0587 | 0.0587 | 0.059 | 0.0566 | 0.0606 | 0.0458 | 0.0601 | – | 0.0645 | 0.0616 | 0.0544
11 | G150F | 0.0632 | 0.0599 | 0.0565 | 0.0597 | 0.071 | 0.0574 | 0.0609 | 0.0702 | 0.0649 | 0.0585 | 0.0528 | 0.0665 | 0.0603 | – | – | 0.0562 | – | – | 0.0655
12 | G150L | 0.0606 | 0.0575 | 0.053 | – | 0.0627 | 0.0625 | – | 0.0591 | – | 0.0666 | 0.0557 | 0.0535 | 0.0628 | 0.0728 | – | 0.0556 | 0.0593 | 0.0392 | 0.0523
13 | V165D | 0.0573 | 0.0638 | 0.0523 | 0.0527 | 0.0595 | – | 0.0355 | 0.0745 | – | 0.0563 | 0.0576 | 0.0816 | – | – | 0.0528 | 0.053 | 0.0658 | 0.0379 | –
14 | D149S | 0.0546 | 0.0208 | 0.0634 | – | 0.0535 | 0.048 | – | 0.059 | 0.0589 | 0.0564 | 0.0686 | – | 0.0429 | – | 0.058 | 0.0932 | – | – | 0.0494
15 | D149Q | 0.0683 | 0.0584 | 0.073 | 0.0581 | 0.0562 | 0.0587 | – | 0.06 | – | 0.0641 | 0.0686 | 0.0808 | 0.0614 | – | 0.0561 | – | – | 0.0551 | –
16 | N193P | 0.0653 | 0.0666 | 0.0268 | 0.0583 | 0.0627 | 0.0718 | – | – | 0.0627 | 0.0687 | 0.0705 | 0.0659 | 0.0427 | – | 0.0625 | 0.0396 | 0.0695 | 0.0446 | 0.0557
17 | T159G | 0.067 | – | 0.0606 | – | – | 0.0609 | – | – | 0.0531 | 0.0551 | 0.0595 | 0.0575 | 0.0802 | – | – | – | – | 0.0542 | –
18 | T159Y | 0.0039 | 0.0498 | 0.0573 | 0.0741 | – | – | 0.103 | – | 0.0651 | 0.059 | 0.0694 | – | – | – | 0.077 | – | 0.0478 | 0.063 | 0.0515
19 | T159E | 0.0571 | 0.0658 | – | 0.0601 | 0.0616 | – | – | 0.063 | – | 0.0594 | 0.0232 | – | 0.0752 | – | 0.0621 | 0.0775 | 0.0553 | – | –
20 | T147Y | 0.0549 | 0.043 | 0.0693 | 0.0351 | 0.065 | – | – | 0.0711 | – | 0.0613 | – | 0.0635 | 0.0556 | – | – | – | – | – | 0.0512
21 | W144Q | 0.0526 | 0.0694 | – | – | – | – | – | 0.0646 | 0.0594 | 0.0693 | 0.0653 | 0.0555 | 0.0665 | – | 0.071 | 0.0578 | 0.0731 | 0.0284 | –
22 | R160A | 0.0563 | 0.0691 | 0.0621 | 0.075 | – | 0.0617 | 0.117 | 0.0789 | 0.0438 | 0.058 | 0.0612 | 0.0716 | 0.0698 | – | 0.0667 | 0.0754 | 0.0538 | 0.0692 | 0.063
23 | V157N | 0.0567 | – | 0.0611 | 0.0554 | 0.0552 | 0.0525 | – | – | – | 0.0516 | 0.054 | 0.0415 | 0.0486 | 0.0501 | 0.0478 | – | 0.0508 | 0.0449 | 0.044
24 | V157R | 0.0554 | 0.0589 | 0.0616 | 0.0569 | 0.0459 | 0.0545 | 0.0656 | 0.0351 | – | 0.0628 | 0.0579 | 0.0734 | 0.0583 | 0 | 0.0545 | – | – | – | 0.0605
25 | L191I | 0.0572 | 0.0668 | – | 0.0481 | – | 0.0536 | – | – | 0.0596 | 0.0564 | 0.0746 | – | – | – | 0.0584 | – | 0.0655 | 0.0436 | –
26 | L191T | 0.0618 | 0.0649 | 0.065 | 0.0496 | 0.0312 | – | – | 0.0337 | 0.07 | 0.0601 | 0.0585 | 0.0642 | 0.0606 | 0.0557 | 0.0686 | – | 0.0592 | 0.039 | 0.0563
